Data published in the supplement of paper PMC4967469.
Lines with a small IC50 respond at low doses; where the fit passes the top or lowest dose, that dose stands as a limit. AUC, from the same fit, is the share of area under the viability curve across the 256-fold dose range; the more sensitive the line, the further below 1. For some of these results: A top dose marked as inferred was calculated from the reported fits. For some of these results: Where an entry number is given, a second screen of the drug exists; the two often differ.

Key:
Experiment in all cases: Viability of human cancer cell lines after 72 h of drug (GDSC screen)
Bleomycin = compound: Cc1c(N)nc([C@H](CC(N)=O)NC[C@H](N)C(N)=O)nc1C(=O)N[C@H](C(=O)N[C@H](C)[C@@H](O)[C@H](C)C(=O)N[C@H](C(=O)NCCc1nc(-c2nc(C(=O)NCCC[S+](C)C)cs2)cs1)[C@@H](C)O)[C@@H](OC1OC(CO)C(O)C(O)C1OC1OC(CO)C(O)C(OC(N)=O)C1O)c1cnc[nH]1 [Bleomycin]
Procedure: (§1)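 Human cancer cell lines in 384-well plates, medium with 10% serum, drug for 72 h over a 256-fold dose range (nine 2-fold or five 4-fold steps up to the top dose). Adherent lines were fixed and stained with the nucleic acid dye Syto60, suspension lines read with resazurin; signal relative to control wells, capped at 0 and 100%. One two-parameter sigmoid per drug and line, fitted in a mixed model over all curves with the slope shared within a line.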

OSI-930 = compound: O=C(Nc1ccc(OC(F)(F)F)cc1)c1sccc1NCc1ccnc2ccccc12 [OSI-930]; conditions: top dose 10.24 µM
Procedure: as §1

VNLG/124 = compound: CCCC(=O)OCc1ccc(OC(=O)/C=C(C)/C=C/C=C(C)/C=C/C2=C(C)CCCC2(C)C)cc1 [VNLG/124]; conditions: top dose 5.12 µM; top dose inferred
Procedure: as §1

LAQ824 = compound: O=C(/C=C/c1ccc(CN(CCO)CCc2c[nH]c3ccccc23)cc1)NO [LAQ824]; conditions: top dose 1.024 µM; top dose inferred
Procedure: as §1

NSC-87877 = compound: O=S(=O)(O)c1ccc2cc(N=Nc3cc(S(=O)(=O)O)c4cccnc4c3O)ccc2c1 [NSC-87877]; conditions: top dose 16 µM; top dose inferred
Procedure: as §1

BX-912 = compound: O=C(Nc1cccc(Nc2ncc(Br)c(NCCc3cnc[nH]3)n2)c1)N1CCCC1 [BX-912]; conditions: top dose 10.24 µM; top dose inferred
Procedure: as §1

Tamoxifen = compound: CC/C(=C(\c1ccccc1)c1ccc(OCCN(C)C)cc1)c1ccccc1 [Tamoxifen]; conditions: top dose 5 µM
Procedure: as §1

Masitinib = compound: Cc1ccc(NC(=O)c2ccc(CN3CCN(C)CC3)cc2)cc1Nc1nc(-c2cccnc2)cs1 [Masitinib]; conditions: top dose 20 µM
Procedure: as §1

HG-5-88-01 = compound: COc1cc(N2CCC(C(N)=O)CC2)ccc1Nc1nc(N)c(Cl)c(Nc2ccccc2S(=O)(=O)C(C)C)n1 [HG-5-88-01]; conditions: top dose 10 µM; top dose inferred
Procedure: as §1

Elesclomol = compound: CN(NC(=O)CC(=O)NN(C)C(=S)c1ccccc1)C(=S)c1ccccc1 [Elesclomol]; conditions: top dose 0.2 µM; top dose inferred
Procedure: as §1

[1] = top dose 50 µM, screen: GDSC drug entry 1378, top dose inferred
[2] = top dose 64 µM, screen: GDSC drug entry 190

Cell Line	AUC (Bleomycin; [1])	IC50 (Bleomycin; [1]) [µM]	AUC (Bleomycin; [2])	IC50 (Bleomycin; [2]) [µM]	AUC (OSI-930)	IC50 (OSI-930) [µM]	AUC (VNLG/124)	IC50 (VNLG/124) [µM]	AUC (LAQ824)	IC50 (LAQ824) [µM]	AUC (NSC-87877)	IC50 (NSC-87877) [µM]	AUC (BX-912)	IC50 (BX-912) [µM]	AUC (Tamoxifen)	IC50 (Tamoxifen) [µM]	AUC (Masitinib)	IC50 (Masitinib) [µM]	AUC (HG-5-88-01)	IC50 (HG-5-88-01) [µM]	AUC (Elesclomol)	IC50 (Elesclomol) [µM]
NCI-H650 (lung adenocarcinoma, adherent)	0.834	37.2	0.865	> 64	0.971	> 10.2	0.986	> 5.12	0.658	0.185	0.974	> 16	0.808	5.98	0.985	> 5	0.945	> 20	0.888	> 10	0.628	0.0293
CAL-78 (chondrosarcoma, adherent)	–	–	0.977	> 64	0.986	> 10.2	0.984	> 5.12	0.901	> 1.02	0.986	> 16	0.912	> 10.2	0.981	> 5	0.986	> 20	0.939	> 10	0.656	0.0364
H2795 (mesothelioma, adherent)	0.796	23.1	0.661	11.2	0.987	> 10.2	0.987	> 5.12	0.777	0.406	0.987	> 16	0.578	1.04	0.984	> 5	0.877	19.6	0.903	> 10	0.795	0.0916
SK-N-AS (neuroblastoma, adherent)	0.816	33.4	0.978	> 64	0.965	> 10.2	0.984	> 5.12	0.766	0.435	0.982	> 16	0.892	> 10.2	0.982	> 5	0.931	> 20	0.913	> 10	0.718	0.0576
IHH-4 (thyroid, semi-adherent)	0.033	< 0.195	0.178	0.571	0.968	> 10.2	0.984	> 5.12	0.423	0.0412	0.992	> 16	0.987	> 10.2	0.992	> 5	0.91	18.2	0.989	> 10	0.068	< 0.000781
GI-1 (glioma, adherent)	0.307	0.925	0.314	1.24	0.97	> 10.2	0.98	> 5.12	0.478	0.0558	0.986	> 16	0.772	3.8	0.983	> 5	0.87	17.2	0.921	> 10	0.458	0.00964
22RV1 (prostate, adherent)	0.859	> 50	0.577	6.84	0.977	> 10.2	0.969	> 5.12	0.326	0.0185	0.979	> 16	0.969	> 10.2	0.958	> 5	0.941	> 20	0.884	> 10	0.508	0.0132
DND-41 (T-cell leukaemia, suspension)	0.117	0.23	0.08	< 0.25	0.946	> 10.2	0.983	> 5.12	0.246	0.0133	0.982	> 16	0.447	0.466	0.903	> 5	0.592	2.16	0.975	> 10	0.58	0.0201
VMRC-MELG (melanoma, adherent)	0.985	> 50	0.607	7.97	0.974	> 10.2	0.988	> 5.12	0.571	0.101	0.989	> 16	0.986	> 10.2	0.988	> 5	0.979	> 20	0.953	> 10	0.877	> 0.2
8-MG-BA (glioma, adherent)	0.308	0.943	0.327	1.37	0.93	> 10.2	0.964	> 5.12	0.488	0.0596	0.975	> 16	0.896	> 10.2	0.901	> 5	0.867	16.2	0.927	> 10	0.464	0.0101
A704 (kidney, adherent)	0.953	> 50	0.595	7.21	0.985	> 10.2	–	–	0.525	0.0749	0.986	> 16	0.956	> 10.2	0.972	> 5	0.893	> 20	0.956	> 10	0.599	0.0232
